# Laboratory results published in PubChem BioAssay AID504332 (National Center for Advancing Translational Sciences (NCATS), 2011).
# Out of some 350,000 compounds screened, about 31,000 (8.9%) were called active. The inconclusive results got no clear call from the source; some entries with a clear call stand among them for comparison. Calls come from the whole dose curve; as a rule, active = well fitted inhibition curve with a large enough effect; inconclusive = small, poorly fitted or top-dose-only effect; inactive = no such curve, though single readings can be large or run the other way. Potencies beside an inconclusive call are fits to weak or partial responses and may not hold up.
# Target: Histone-lysine N-methyltransferase EHMT2 (Homo sapiens) (UniProt Q96KQ7)
# Test: qHTS Assay for Inhibitors of Histone Lysine Methyltransferase G9a; note: nearly all actives have a fitted effect of over 75% in size
# Conditions: G9a H3K9 monomethylation, AlphaScreen, 2 h; activity, negative = inhibition: at 59 µM (top of the series) unless noted
# In short: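 Signal arises when biotinylated H3K9 peptide, once monomethylated, bridges streptavidin donor and antibody-captured acceptor beads. Enzyme at 20 nM was preincubated 15 min with test compounds; peptide 500 nM and SAM 20 uM then reacted for 2 h.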
# % is set by controls: 0 for no effect and ±100 for the full control effect; potency is the fitted concentration of half-maximal effect; tags give direction and shape of the fitted curve.
# Sequence of UniProt Q96KQ7 (Q96KQ7 whole entry, looked up): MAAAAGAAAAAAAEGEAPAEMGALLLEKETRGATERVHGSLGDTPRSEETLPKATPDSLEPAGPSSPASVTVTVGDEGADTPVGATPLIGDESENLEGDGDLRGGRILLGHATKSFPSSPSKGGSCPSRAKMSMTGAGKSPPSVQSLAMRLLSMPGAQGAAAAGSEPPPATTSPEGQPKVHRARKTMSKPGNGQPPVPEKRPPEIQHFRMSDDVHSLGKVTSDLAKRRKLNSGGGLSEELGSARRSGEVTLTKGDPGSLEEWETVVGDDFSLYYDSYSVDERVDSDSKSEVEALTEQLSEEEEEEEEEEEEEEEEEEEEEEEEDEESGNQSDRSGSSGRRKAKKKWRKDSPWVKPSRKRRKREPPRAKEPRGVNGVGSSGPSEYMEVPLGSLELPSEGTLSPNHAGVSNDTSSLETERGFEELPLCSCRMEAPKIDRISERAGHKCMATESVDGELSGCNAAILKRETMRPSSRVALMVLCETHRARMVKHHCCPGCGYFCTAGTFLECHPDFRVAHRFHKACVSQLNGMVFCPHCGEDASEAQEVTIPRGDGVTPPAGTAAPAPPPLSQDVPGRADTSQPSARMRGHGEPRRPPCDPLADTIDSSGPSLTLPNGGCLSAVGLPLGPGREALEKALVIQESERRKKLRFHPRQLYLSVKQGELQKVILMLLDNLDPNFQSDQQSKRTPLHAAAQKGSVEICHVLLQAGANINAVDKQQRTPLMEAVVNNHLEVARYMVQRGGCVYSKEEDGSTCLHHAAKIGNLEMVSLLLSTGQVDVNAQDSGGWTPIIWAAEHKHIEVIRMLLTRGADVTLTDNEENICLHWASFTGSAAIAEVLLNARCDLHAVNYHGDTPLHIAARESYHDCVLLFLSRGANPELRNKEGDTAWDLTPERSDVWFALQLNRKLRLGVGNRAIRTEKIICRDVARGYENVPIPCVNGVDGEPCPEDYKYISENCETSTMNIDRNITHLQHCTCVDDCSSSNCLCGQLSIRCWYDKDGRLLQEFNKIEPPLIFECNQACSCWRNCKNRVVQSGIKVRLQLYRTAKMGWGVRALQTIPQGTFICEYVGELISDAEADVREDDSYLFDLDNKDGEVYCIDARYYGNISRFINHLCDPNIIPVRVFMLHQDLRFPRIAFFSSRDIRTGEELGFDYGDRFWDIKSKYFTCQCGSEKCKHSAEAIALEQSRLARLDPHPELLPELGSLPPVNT
Structure (SMILES),Potency,"activity, negative = inhibition"
O=C(COC(=O)c1cc(-c2ccco2)nc2ccccc12)NCc1ccc2c(c1)OCO2,active: 12.6 µM,
Cc1ccnc(NC(c2ccccn2)c2c(C)[nH]c3ccccc23)c1 (stereo not drawn),"inconclusive: 3.16 µM [inhibitor, full curve, poor fit]",
CCSc1nnc(NC(=O)CN2C(=O)NC3(CCCC3)C2=O)s1,,inactive: 6.57% [at 12.7 µM]
COc1ccc2nc(SCCN(C)C)[nH]c2c1,"inconclusive: 56.2 µM [inhibitor, partial curve, poor fit]",
Cc1csc(NC(=O)C(CC(C)C)NS(=O)(=O)c2ccc3c(c2)oc(=O)n3C)n1 (stereo not drawn),"inconclusive: 70.8 µM [inhibitor, single point]",
Cc1cccc(C)c1NC(=O)CSc1nc(-c2cccs2)cc(C(F)(F)F)n1,inactive,
CCOC(=O)C1=C(CSc2nc3c(cc2C#N)CN(C)CC3)OC(N)=C(C#N)C1c1ccccc1 (stereo not drawn),active: 50.1 µM,
CC(C)NC(=O)CCSc1nc(-c2ccc3c(c2)OCO3)cc(C(F)(F)F)n1,inactive,
O=C(Cn1[nH]c(=O)c2ccccc2c1=O)Nc1cccc(-c2nnc3n2CCCCC3)c1,"inconclusive: 79.4 µM [inhibitor, single point]",
CCCOc1ccc(C(=O)CCNC(Cc2c[nH]c3ccccc23)C(=O)O)cc1 (stereo not drawn),active: 7.94 µM,
COCCN1C(=O)C(=O)/C(=C(/O)c2ccc(C)cc2)C1c1ccccn1 (stereo not drawn),active: 50.1 µM,
CN1CCc2c(n(CC(O)CN3C(=O)c4ccccc4S3(=O)=O)c3ccccc23)C1=O (stereo not drawn),inactive,
CN(c1nccc(=O)[nH]1)C1CCN(c2nc3ccccc3n2Cc2ccc(F)cc2)CC1,,inactive: -30.1% [at 12.7 µM]
Cc1cc(S(=O)(=O)Nc2ccc(C(=O)NCC3(N4CCCCC4)CCCCC3)cc2)ccc1F,"inconclusive: 79.4 µM [inhibitor, single point]",
Cc1sc(-n2c(C)cc(C=O)c2C)c(C(=O)O)c1C,"inconclusive: 89.1 µM [inhibitor, single point]",
O=C(Nc1nnc(-c2cccs2)o1)C1CC1,active: 50.1 µM,
CCc1cccc(OCCOC(=O)CNS(=O)(=O)c2ccc(NC(C)=O)cc2)c1,"inconclusive: 56.2 µM [inhibitor, partial curve, poor fit]",
CC(C)[C@H](NC(=O)c1ccco1)C(=O)N(C)Cc1c(F)cccc1Cl,inactive,
CC1(C(=O)N/N=C/c2ccc3c(c2)OCO3)CC1(Br)Br (stereo not drawn),"inconclusive: 0.891 µM [inhibitor, full curve, poor fit]",
CCOC(=O)c1cnc2nc(NCc3ccc(OCc4ccccc4)cc3)[nH]n2c1=O,"inconclusive: 4.47 µM [inhibitor, full curve, poor fit]",
CCOc1ccc2nc(NC(=O)c3nc(SC(C)C)ncc3Cl)sc2c1,"inconclusive: 0.794 µM [inhibitor, full curve, poor fit]",
CS(=O)(=O)N1CCC2(CCCN(Cc3ccccc3)C2)CC1,,inactive: -10.4% [at 12.7 µM]

Structure (SMILES),Potency,"activity, negative = inhibition"
O=C(CN1CCCC1)N1CCCC(c2ccc(F)cc2)c2ccc(F)cc21 (stereo not drawn),active: 28.2 µM,
Fc1ccc(CSc2nc3ncc(Br)cc3[nH]2)cc1,"inconclusive: 89.1 µM [inhibitor, single point]",
COc1cccc(-c2csc(N3CCN(C(=S)Nc4ccccc4Cl)CC3)n2)c1,"inconclusive: 17.8 µM [inhibitor, single point]",
CN(C)S(=O)(=O)N1CCC(N2CCN(Cc3ccc(F)cc3)C(=O)C2=O)CC1,inactive,
Cc1ccc(-n2ncc3c2CC(C)(C)CC3NC(=O)C2CCOCC2)cc1 (stereo not drawn),"inconclusive: 50.1 µM [inhibitor, partial curve, poor fit]",
COc1ccc(-c2csc(Cc3nnc(N4CCOCC4)n3-c3ccccc3)n2)cc1OC,"inconclusive: 39.8 µM [inhibitor, single point]",
Cc1ccc(-c2nnc(Nc3cccc(O)c3)c3ccccc23)cc1S(=O)(=O)NCCO,"inconclusive: 56.2 µM [inhibitor, single point]",
CC(=O)c1ccc(N2Cc3ccccc3C2=NC(=O)c2cccs2)cc1,inactive,
O=C(c1ccncc1)N1CCC[C@@]2(CCN(c3ccccc3)C2)C1,,inactive: -17.8% [at 12.7 µM]
O=C(NCC1CCCO1)c1ccc(N2C(=O)C3CCCCC3C2=O)cc1 (stereo not drawn),inactive,
CCCCn1c(N)c(N(CCC(C)C)C(=O)C2CSC3(C)CCC(=O)N23)c(=O)[nH]c1=O (stereo not drawn),"inconclusive: 50.1 µM [inhibitor, partial curve, poor fit]",
S=C(NCc1ccc(Cl)cc1)NC1CCN(Cc2ccccc2)CC1,"inconclusive: 31.6 µM [inhibitor, partial curve, poor fit]",
CCCCCC(=O)Nc1nc(C)c(-c2csc(Nc3ccccc3OCC)n2)s1,"inconclusive: 22.4 µM [inhibitor, single point]",
Cc1cc2nn(-c3ccccc3)nc2cc1NC(=O)Cc1ccc(Cl)cc1,active: 14.1 µM,
CCc1c(C)nc(Nc2nc(C)c3ccc(OC)cc3n2)[nH]c1=O,"inconclusive: 79.4 µM [inhibitor, single point]",
O=C(Cn1c(=O)c2cccn2c2ccc(F)cc21)NCc1cccc(Cl)c1,"inconclusive: 28.2 µM [inhibitor, single point]",
CCOC(=O)c1c(NC(=O)C(C)NCc2ccco2)sc2c1CCC(C)C2 (stereo not drawn),active: 11.2 µM,
COc1ccc(-n2c(Cc3cc(=O)[nH]c(=O)[nH]3)nnc2SCc2ccccc2)cc1,"inconclusive: 100 µM [inhibitor, single point]",
CCc1ccc(-n2c(CCC(=O)O)ccc2-c2cccs2)cc1,active: 10 µM,
COc1ccc(-n2ccn(CC(=O)Nc3ccccc3C(F)(F)F)c(=O)c2=O)cc1OC,"inconclusive: 28.2 µM [inhibitor, partial curve, poor fit]",
CCc1ccc2c(c1)c1nnc(NN)nc1n2C,"inconclusive: 56.2 µM [inhibitor, partial curve, poor fit]",
